The supplement of paper PMC8728848
The other results are listed elsewhere or left out.

Legend:
Experiment in all cases: glycan array binding signal (z-score within array); higher = stronger binding
Details in all cases: glycan notation: IUPAC condensed, linker removed
[1] = biological target: Neu5Ac(a2-6)Gal(b1-4)GlcNAc(b1-2)Man(a1-3)[Man(a1-6)]Man(b1-4)GlcNAc(b1-4)GlcNAc
Procedure, shortened: (§1)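 Negative Z-scores can be read as non-binding. The Z-score is calculated within each array and then averaged across arrays of one protein sequence at different concentrations or buffers and across linkers. Arrays, 3228 in all, were curated from the Consortium for Functional Glycomics database and kept only where the protein sequence was available.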

[2] = biological target: Neu5Ac(a2-6)Gal(b1-4)GlcNAc(b1-2)Man(a1-3)[Neu5Ac(a2-6)Gal(b1-4)GlcNAc(b1-2)Man(a1-6)]Man(b1-4)GlcNAc(b1-4)GlcNAc
Procedure, shortened: as §1

[3] = biological target: Neu5Ac(a2-6)Gal(b1-4)GlcNAc(b1-2)Man(a1-3)[Neu5Ac(a2-6)Gal(b1-4)GlcNAc(b1-2)Man(a1-6)]Man(b1-4)GlcNAc(b1-4)[Fuc(a1-6)]GlcNAc
Procedure, shortened: as §1

[4] = biological target: Neu5Ac(a2-6)Gal(b1-4)GlcNAc(b1-2)Man(a1-6)Man(b1-4)GlcNAc(b1-4)GlcNAc
Procedure, shortened: as §1

[5] = biological target: Neu5Ac(a2-6)Gal(b1-4)GlcNAc(b1-2)Man(a1-6)[Gal(b1-4)GlcNAc(b1-2)Man(a1-3)]Man(b1-4)GlcNAc(b1-4)GlcNAc
Procedure, shortened: as §1

[6] = biological target: Neu5Ac(a2-6)Gal(b1-4)GlcNAc(b1-2)Man(a1-6)[GlcNAc(b1-2)Man(a1-3)]Man(b1-4)GlcNAc(b1-4)GlcNAc
Procedure, shortened: as §1

[7] = biological target: Neu5Ac(a2-6)Gal(b1-4)GlcNAc(b1-2)Man(a1-6)[Man(a1-3)]Man(b1-4)GlcNAc(b1-4)GlcNAc
Procedure, shortened: as §1

[8] = biological target: Neu5Ac(a2-6)Gal(b1-4)GlcNAc(b1-3)Gal(b1-3)GlcNAc
Procedure, shortened: as §1

[9] = biological target: Neu5Ac(a2-6)Gal(b1-4)GlcNAc(b1-3)Gal(b1-4)GlcNAc
Procedure, shortened: as §1

[10] = biological target: Neu5Ac(a2-6)Gal(b1-4)GlcNAc(b1-3)Gal(b1-4)GlcNAc(b1-3)Gal(b1-4)GlcNAc
Procedure, shortened: as §1

[11] = biological target: Neu5Ac(a2-6)Gal(b1-4)GlcNAc(b1-3)Gal(b1-4)[Fuc(a1-3)]GlcNAc(b1-3)Gal(b1-4)[Fuc(a1-3)]GlcNAc
Procedure, shortened: as §1

[12] = biological target: Neu5Ac(a2-6)Gal(b1-4)GlcNAc(b1-3)GalNAc
Procedure, shortened: as §1

[13] = biological target: Neu5Ac(a2-6)Gal(b1-4)GlcNAc(b1-3)[Neu5Ac(a2-6)Gal(b1-4)GlcNAc(b1-6)]GalNAc
Procedure, shortened: as §1

[14] = biological target: Neu5Ac(a2-6)Gal(b1-4)GlcNAc(b1-6)GalNAc
Procedure, shortened: as §1

[15] = biological target: Neu5Ac(a2-6)Gal(b1-4)GlcNAc(b1-6)[Gal(b1-3)GlcNAc(b1-3)]Gal(b1-4)Glc
Procedure, shortened: as §1

[16] = biological target: Neu5Ac(a2-6)Gal(b1-4)GlcNAc6S
Procedure, shortened: as §1

Neu5Ac(a2-6)GalNAc = biological target: Neu5Ac(a2-6)GalNAc
Procedure, shortened: as §1

[17] = biological target: Neu5Ac(a2-6)GalNAc(b1-4)GlcNAc
Procedure, shortened: as §1

[18] = biological target: Neu5Ac(a2-6)GalNAc(b1-4)GlcNAc6S
Procedure, shortened: as §1

[19] = biological target: Neu5Ac(a2-6)GlcNAc(b1-4)GlcNAc
Procedure, shortened: as §1

[20] = biological target: Neu5Ac(a2-6)GlcNAc(b1-4)GlcNAc(b1-4)GlcNAc
Procedure, shortened: as §1

Neu5Ac(a2-8)Neu5Ac = biological target: Neu5Ac(a2-8)Neu5Ac
Procedure, shortened: as §1

[21] = biological target: Neu5Ac(a2-8)Neu5Ac(a2-3)Gal(b1-3)GalNAc(b1-4)[Neu5Ac(a2-8)Neu5Ac(a2-3)]Gal(b1-4)Glc
Procedure, shortened: as §1

[22] = biological target: Neu5Ac(a2-8)Neu5Ac(a2-3)Gal(b1-4)Glc
Procedure, shortened: as §1

[23] = biological target: Neu5Ac(a2-8)Neu5Ac(a2-3)[Gal(b1-3)GalNAc(b1-4)]Gal(b1-4)Glc
Procedure, shortened: as §1

[24] = biological target: Neu5Ac(a2-8)Neu5Ac(a2-3)[GalNAc(b1-4)]Gal(b1-4)Glc
Procedure, shortened: as §1

[25] = biological target: Neu5Ac(a2-8)Neu5Ac(a2-8)Neu5Ac
Procedure, shortened: as §1

[26] = biological target: Neu5Ac(a2-8)Neu5Ac(a2-8)Neu5Ac(a2-3)Gal(b1-4)Glc
Procedure, shortened: as §1

[27] = biological target: Neu5Ac(a2-8)Neu5Ac(a2-8)Neu5Ac(a2-3)[GalNAc(b1-4)]Gal(b1-4)Glc
Procedure, shortened: as §1

[28] = biological target: Neu5Ac(a2-8)Neu5Ac(a2-8)Neu5Ac(a2-8)Neu5Ac(a2-3)[GalNAc(b1-4)]Gal(b1-4)Glc
Procedure, shortened: as §1

[29] = biological target: Neu5Ac(b2-6)Gal(b1-4)GlcNAc
Procedure, shortened: as §1

Neu5Ac(b2-6)GalNAc = biological target: Neu5Ac(b2-6)GalNAc
Procedure, shortened: as §1

[30] = biological target: Neu5Ac9Ac(a2-3)Gal(b1-3)GlcNAc
Procedure, shortened: as §1

[31] = biological target: Neu5Ac9Ac(a2-3)Gal(b1-4)GlcNAc
Procedure, shortened: as §1

[32] = biological target: Neu5Ac9Ac(a2-6)Gal(b1-4)GlcNAc
Procedure, shortened: as §1

[33] = biological target: Neu5Gc(a2-3)Gal(b1-3)GlcNAc
Procedure, shortened: as §1

[34] = biological target: Neu5Gc(a2-3)Gal(b1-3)[Fuc(a1-4)]GlcNAc
Procedure, shortened: as §1

Neu5Gc(a2-3)Gal(b1-4)Glc = biological target: Neu5Gc(a2-3)Gal(b1-4)Glc
Procedure, shortened: as §1

[35] = biological target: Neu5Gc(a2-3)Gal(b1-4)GlcNAc
Procedure, shortened: as §1

[36] = biological target: Neu5Gc(a2-3)Gal(b1-4)[Fuc(a1-3)]GlcNAc
Procedure, shortened: as §1

[37] = biological target: Neu5Gc(a2-6)Gal(b1-4)GlcNAc
Procedure, shortened: as §1

Neu5Gc(a2-6)GalNAc = biological target: Neu5Gc(a2-6)GalNAc
Procedure, shortened: as §1

[38] = biological target: Neu5Gc(b2-6)Gal(b1-4)GlcNAc
Procedure, shortened: as §1

B1: CIH1 (Colletotrichum higginsianum) (protein)
chain: LPQATPTTPTPTSASAAATISATSSPTCSPGPVIDYTVVSGDTLTIISQRFSSGICNIADASGITNPNFLSLGQVLQVPTYVCTPDNTSCLAKEGSDTCVEGGPATHTIVAGDTFFLVAQSLGLDVNALLAANEGVDPLLLQIGDVINIPVC
[1]
  glycan array binding signal (z-score): -0.06
[2]
  glycan array binding signal (z-score): -0.072
[3]
  glycan array binding signal (z-score): -0.086
[4]
  glycan array binding signal (z-score): -0.066
[5]
  glycan array binding signal (z-score): -0.069
[6]
  glycan array binding signal (z-score): -0.084
[7]
  glycan array binding signal (z-score): -0.096
[8]
  glycan array binding signal (z-score): -0.061
[9]
  glycan array binding signal (z-score): -0.075
[10]
  glycan array binding signal (z-score): -0.082
[11]
  glycan array binding signal (z-score): -0.064
[12]
  glycan array binding signal (z-score): -0.075
[13]
  glycan array binding signal (z-score): -0.085
[14]
  glycan array binding signal (z-score): -0.056
[15]
  glycan array binding signal (z-score): -0.072
[16]
  glycan array binding signal (z-score): -0.074
Neu5Ac(a2-6)GalNAc
  glycan array binding signal (z-score): -0.07
[17]
  glycan array binding signal (z-score): -0.081
[18]
  glycan array binding signal (z-score): -0.079
[19]
  glycan array binding signal (z-score): -0.05
[20]
  glycan array binding signal (z-score): -0.004
Neu5Ac(a2-8)Neu5Ac
  glycan array binding signal (z-score): -0.072
[21]
  glycan array binding signal (z-score): -0.07
[22]
  glycan array binding signal (z-score): -0.069
[23]
  glycan array binding signal (z-score): -0.088
[24]
  glycan array binding signal (z-score): -0.075
[25]
  glycan array binding signal (z-score): -0.065
[26]
  glycan array binding signal (z-score): -0.063
[27]
  glycan array binding signal (z-score): -0.048
[28]
  glycan array binding signal (z-score): -0.082
[29]
  glycan array binding signal (z-score): -0.051
Neu5Ac(b2-6)GalNAc
  glycan array binding signal (z-score): -0.048
[30]
  glycan array binding signal (z-score): -0.065
[31]
  glycan array binding signal (z-score): -0.061
[32]
  glycan array binding signal (z-score): -0.072
[33]
  glycan array binding signal (z-score): -0.077
[34]
  glycan array binding signal (z-score): -0.072
Neu5Gc(a2-3)Gal(b1-4)Glc
  glycan array binding signal (z-score): -0.081
[35]
  glycan array binding signal (z-score): -0.063
[36]
  glycan array binding signal (z-score): -0.085
[37]
  glycan array binding signal (z-score): -0.083
Neu5Gc(a2-6)GalNAc
  glycan array binding signal (z-score): -0.056
[38]
  glycan array binding signal (z-score): -0.075
